Among the data in paper PMC12820563, “FoxP3 forms a head-to-head dimer in vivo and stabilizes its multimerization on adjacent microsatellites” are binding signal values, retold here.

This is one part of the list.

The target in the test is T1, MBP-FoxP1dN (Mus musculus, UniProt P58462 326-579).
T1 sequence: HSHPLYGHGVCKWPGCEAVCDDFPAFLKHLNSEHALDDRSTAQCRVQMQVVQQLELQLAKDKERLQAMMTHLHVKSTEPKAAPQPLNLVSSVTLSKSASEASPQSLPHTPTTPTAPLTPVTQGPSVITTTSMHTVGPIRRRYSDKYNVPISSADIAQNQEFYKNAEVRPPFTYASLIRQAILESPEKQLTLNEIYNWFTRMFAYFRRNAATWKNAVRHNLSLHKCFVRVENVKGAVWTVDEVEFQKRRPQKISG
Description: PD-seq (MBP pull-down with sequencing); 20 mM Tris-HCl pH 7.5, 100 mM NaCl, 1.5 mM MgCl2, 0.4 uM protein, 0.1 uM dsDNA library, 30 min, room temperature, amylose pull-down; high values mean tight binding. The following applies: protein: recombinant; tags: His6-MBP; chain copies: 2; dsDNA, one strand shown. The method, boiled down: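 Mouse FoxP3 or FoxP1 fragment lacking the N-terminus, His6-MBP-tagged and expressed in E. coli, was incubated at 0.4 µM with 0.1 µM Klenow-filled degenerate double-stranded DNA library for 30 min at room temperature in Tris pH 7.5 buffer with NaCl and MgCl2. Complexes captured on amylose resin were washed three times and their DNA sequenced on Illumina. Binding is reads-per-million enrichment of pull-down over input, replicates pooled.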
Consider “GATGATTGTTCTCCCAGCTGATGAATTGTTTATATCGAGTAAACAAATTTTCCTAATCTTTCTGTTCAAGCGCCATCTAC”, for which the binding signal was 2.47 RPM ratio (pull-down/input).
The result for “GATGATTGTTCTCCCAGCTGATGAATTTGGTGTCTCGAGTAAACAAATTTTCCTAATCTTTCTGTTCAAGCGCCATCTAC” reads 0.916 RPM ratio (pull-down/input); that for “GATGATTGTTCTCCCAGCTGATGAATTTCGGTGATCGAGTAAACAAATTTTCCTAATCTTTCTGTTCAAGCGCCATCTAC”, 0.941 RPM ratio (pull-down/input).
Next, “GATGATTGTTCTCCCAGCTGATGAATTAGTCCTGTCGAGTAAACAAATTTTCCTAATCTTTCTGTTCAAGCGCCATCTAC”: 0.893 RPM ratio (pull-down/input).
The result for “GATGATTGTTCTCCCAGCTGATGAATTACTACTGTCGAGTAAACAAATTTTCCTAATCTTTCTGTTCAAGCGCCATCTAC” reads 1.23 RPM ratio (pull-down/input); that for “GATGATTGTTCTCCCAGCTGATGAATTTGCGAATTCGAGTAAACAAATTTTCCTAATCTTTCTGTTCAAGCGCCATCTAC”, 1.03 RPM ratio (pull-down/input); that for “GATGATTGTTCTCCCAGCTGATGAATTTAATTCGTCGAGTAAACAAATTTTCCTAATCTTTCTGTTCAAGCGCCATCTAC”, 0.913 RPM ratio (pull-down/input).
In the case of “GATGATTGTTCTCCCAGCTGATGAATTCTGTATGTCGAGTAAACAAATTTTCCTAATCTTTCTGTTCAAGCGCCATCTAC”, the binding signal was 1.23 RPM ratio (pull-down/input).
With “GATGATTGTTCTCCCAGCTGATGAATTATAGCCTTCGAGTAAACAAATTTTCCTAATCTTTCTGTTCAAGCGCCATCTAC”, the binding signal was 0.976 RPM ratio (pull-down/input).
Turning to “GATGATTGTTCTCCCAGCTGATGAATTGATCAGATCGAGTAAACAAATTTTCCTAATCTTTCTGTTCAAGCGCCATCTAC”, the binding signal is 0.997 RPM ratio (pull-down/input).
The result for “GATGATTGTTCTCCCAGCTGATGAATTTCAATTGTCGAGTAAACAAATTTTCCTAATCTTTCTGTTCAAGCGCCATCTAC” reads 1.02 RPM ratio (pull-down/input).
Regarding “GATGATTGTTCTCCCAGCTGATGAATTGCACAAATCGAGTAAACAAATTTTCCTAATCTTTCTGTTCAAGCGCCATCTAC”, the binding signal was 1.47 RPM ratio (pull-down/input).
Next, “GATGATTGTTCTCCCAGCTGATGAATTTGAGACGTCGAGTAAACAAATTTTCCTAATCTTTCTGTTCAAGCGCCATCTAC”: 0.779 RPM ratio (pull-down/input); “GATGATTGTTCTCCCAGCTGATGAATTCGAATTGTCGAGTAAACAAATTTTCCTAATCTTTCTGTTCAAGCGCCATCTAC”: 1.02 RPM ratio (pull-down/input).
Next, “GATGATTGTTCTCCCAGCTGATGAATTTTTATGATCGAGTAAACAAATTTTCCTAATCTTTCTGTTCAAGCGCCATCTAC”: 1.08 RPM ratio (pull-down/input); “GATGATTGTTCTCCCAGCTGATGAATTGATAGAATCGAGTAAACAAATTTTCCTAATCTTTCTGTTCAAGCGCCATCTAC”: 1.06 RPM ratio (pull-down/input).
On to “GATGATTGTTCTCCCAGCTGATGAATTTATATCATCGAGTAAACAAATTTTCCTAATCTTTCTGTTCAAGCGCCATCTAC”, for which the binding signal is 1.27 RPM ratio (pull-down/input).
The result for “GATGATTGTTCTCCCAGCTGATGAATTGCCTGCCTCGAGTAAACAAATTTTCCTAATCTTTCTGTTCAAGCGCCATCTAC” reads 0.98 RPM ratio (pull-down/input); that for “GATGATTGTTCTCCCAGCTGATGAATTACGGCCCTCGAGTAAACAAATTTTCCTAATCTTTCTGTTCAAGCGCCATCTAC”, 0.874 RPM ratio (pull-down/input); that for “GATGATTGTTCTCCCAGCTGATGAATTCCTGACCTCGAGTAAACAAATTTTCCTAATCTTTCTGTTCAAGCGCCATCTAC”, 0.746 RPM ratio (pull-down/input).
“GATGATTGTTCTCCCAGCTGATGAATTCTTCATATCGAGTAAACAAATTTTCCTAATCTTTCTGTTCAAGCGCCATCTAC”: the binding signal is 0.961 RPM ratio (pull-down/input).
For the sequence “GATGATTGTTCTCCCAGCTGATGAATTTGGCAGATCGAGTAAACAAATTTTCCTAATCTTTCTGTTCAAGCGCCATCTAC”, the binding signal was 0.898 RPM ratio (pull-down/input).
Next, “GATGATTGTTCTCCCAGCTGATGAATTTTCTGGTTCGAGTAAACAAATTTTCCTAATCTTTCTGTTCAAGCGCCATCTAC”: 0.937 RPM ratio (pull-down/input); “GATGATTGTTCTCCCAGCTGATGAATTGATAAATTCGAGTAAACAAATTTTCCTAATCTTTCTGTTCAAGCGCCATCTAC”: 1.24 RPM ratio (pull-down/input).
Next, “GATGATTGTTCTCCCAGCTGATGAATTTTCCCAGTCGAGTAAACAAATTTTCCTAATCTTTCTGTTCAAGCGCCATCTAC”: 0.905 RPM ratio (pull-down/input); “GATGATTGTTCTCCCAGCTGATGAATTATATTGTTCGAGTAAACAAATTTTCCTAATCTTTCTGTTCAAGCGCCATCTAC”: 2.08 RPM ratio (pull-down/input); “GATGATTGTTCTCCCAGCTGATGAATTCGTCTTTTCGAGTAAACAAATTTTCCTAATCTTTCTGTTCAAGCGCCATCTAC”: 0.908 RPM ratio (pull-down/input).
Next, “GATGATTGTTCTCCCAGCTGATGAATTCAGCCTTTCGAGTAAACAAATTTTCCTAATCTTTCTGTTCAAGCGCCATCTAC”: 0.82 RPM ratio (pull-down/input); “GATGATTGTTCTCCCAGCTGATGAATTGGAACCCTCGAGTAAACAAATTTTCCTAATCTTTCTGTTCAAGCGCCATCTAC”: 0.758 RPM ratio (pull-down/input); “GATGATTGTTCTCCCAGCTGATGAATTGCAAGCATCGAGTAAACAAATTTTCCTAATCTTTCTGTTCAAGCGCCATCTAC”: 1.33 RPM ratio (pull-down/input).
As to “GATGATTGTTCTCCCAGCTGATGAATTGATCTCTTCGAGTAAACAAATTTTCCTAATCTTTCTGTTCAAGCGCCATCTAC”, the binding signal was 0.926 RPM ratio (pull-down/input).
As for “GATGATTGTTCTCCCAGCTGATGAATTAGGTTTGTCGAGTAAACAAATTTTCCTAATCTTTCTGTTCAAGCGCCATCTAC”, the binding signal is 1.06 RPM ratio (pull-down/input).
